Several values for one entry are separate records, joined by “and”; a condition that tells them apart may be missing. Equal entries are not always repeated. Inconclusive means that the source gave no clear call. Such entries were picked first, then a sample of the others. A potency beside an inconclusive call is a rough fit, not a confirmed value. Activity calls are given as the source filed them. The call rests on the fitted dose curve; in most records, active means well fitted curve in the direction sought with a large enough effect; inconclusive means small, poorly fitted or top-dose-only effect, or another doubt; inactive means no such curve, though single readings can be large; an effect the other way counts as inactive or inconclusive.
Assays:
[1] = qHTS Screen of the MIPE 4.0 Collection Against Ewings Sarcoma (RDES) (AID 1259252); further: nearly all actives have a fitted effect of over 35% in size
Procedure, shortened: (§1)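 Here, cells in 5% FBS RPMI were exposed for two days (48 h) to compound dilutions added four hours after plating. ATP-based CellTiter-Glo luminescence measured viability, normalized to vehicle and no-cell blanks.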

[2] = qHTS Screen of the MIPE 4.0 Collection Against Ewings Sarcoma (TC71) (AID 1259253); further: nearly all actives have a fitted effect of over 40% in size
Procedure, shortened: as §1

[3] = qHTS Screen of the MIPE 4.0 Collection Against Ewings Sarcoma (EW8) (AID 1259255); further: nearly all actives have a fitted effect of over 35% in size
Procedure, shortened: as §1

[4] = qHTS Screen of the MIPE 4.0 Collection Against Ewings Sarcoma (TC32) (AID 1259256); further: nearly all actives have a fitted effect of over 45% in size
Procedure, shortened: as §1

[5] = P-glycoprotein substrates identified in KB-8-5-11 adenocarcinoma cell line, qHTS therapeutic library screen (AID 1346987); further: nearly all actives have a fitted effect of over 65% in size; on activity change, negative = cytotoxicity: series mostly up to about 44 µM; on the % scale 0 is the no-effect control and ±100 the full control effect
Procedure, shortened: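 P-gp-mediated resistance screen: KB-8-5-11 cells treated 72 h with compounds in dose-response. CellTiter-Glo viability.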

[6] = qHTS Assay for Identifying Gametocytocidal Compounds (AID 743244); details: P. falciparum 3D7 stage III-V gametocytes, alamarBlue, 72 h; max response: stronger effect = lower value
Procedure, shortened: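 Stage III–V gametocytes of P. falciparum 3D7 were seeded at 20,000 cells/well onto pre-dispensed compounds. After 72 h, 37 °C, 5% CO2, alamarBlue was added for another 24 h.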
Potency means the concentration at half of the fitted maximal effect; tags describe the fitted curve by direction and shape.

CC=CCC=CCCC(=O)[C@H]1O[C@@H]1C(N)=O
Potency [1]: inconclusive: 33.2 µM [inhibitor, single point]
Potency [2]: inconclusive: 23.5 µM [inhibitor, single point]
Potency [3]: inconclusive: 29.6 µM [inhibitor, single point]
Potency [4]: inconclusive: 29.6 µM [inhibitor, single point]

Cn1c(=O)c2[nH]cnc2n(C)c1=O
Potency [1]: inconclusive: 23.5 µM [inhibitor, single point]
Potency [2]: inactive
Potency [3]: inconclusive: 13.2 µM [inhibitor, partial curve, poor fit]
Potency [4]: inconclusive: 29.6 µM [inhibitor, single point]

CCC(=O)NC[C@H](Cc1ccc(OCCc2nc(-c3ccccc3)oc2C)cc1)NC(C)=CC(=O)c1ccc(C(F)(F)F)cc1
Potency [1]: inconclusive: 4.69 µM [inhibitor, partial curve, poor fit]
Potency [2]: inconclusive: 5.26 µM [inhibitor, partial curve, poor fit]
Potency [3]: inconclusive: 3.72 µM [inhibitor, full curve, poor fit]
Potency [4]: inconclusive: 3.72 µM [inhibitor, full curve, poor fit]

CC1(C)CCC[C@@]2(C)[C@@H]1CC[C@@]1(C)OC(=O)C[C@H]21
Potency [1]: inconclusive: 3.32 µM [inhibitor, full curve, poor fit]
Potency [2]: inconclusive: 3.72 µM [inhibitor, full curve, poor fit]
Potency [3]: inconclusive: 2.64 µM [inhibitor, full curve, poor fit]
Potency [4]: inconclusive: 3.72 µM [inhibitor, full curve, poor fit]

CC[C@H]1OC(=O)[C@H](C)[C@@H](O[C@H]2C[C@@](C)(OC)[C@@H](O)[C@H](C)O2)[C@H](C)[C@@H](O[C@@H]2O[C@H](C)C[C@H](N(C)C)[C@@H]2O)[C@](C)(OC)C[C@@H](C)C(=O)[C@H](C)[C@@H](O)[C@]1(C)O
Potency [1]: inactive
Potency [2]: inactive
Potency [3]: inactive
Potency [4]: inactive
Potency [5]: inactive

Cc1c[nH]c(C=C2C(=O)Nc3ccccc32)c1CCC(=O)O
Potency [1]: inconclusive: 33.2 µM [inhibitor, single point]
Potency [2]: inconclusive: 33.2 µM [inhibitor, single point]
Potency [3]: inconclusive: 26.4 µM [inhibitor, single point]
Potency [4]: inconclusive: 33.2 µM [inhibitor, single point]
Potency [5]: inconclusive: 37.2 µM [inhibitor, single point]

CO[C@H]1C[C@@H]2CC[C@@H](C)[C@@](O)(O2)C(=O)C(=O)N2CCCC[C@@H]2C(=O)O[C@H]([C@H](C)C[C@@H]2CC[C@H](OP(C)(C)=O)[C@H](OC)C2)CC(=O)[C@H](C)C=C(C)[C@@H](O)[C@@H](OC)C(=O)[C@H](C)C[C@H](C)C=CC=CC=C1C
Potency [1]: inconclusive: 29.6 µM [inhibitor, partial curve, poor fit]
Potency [2]: inconclusive: 29.6 µM [inhibitor, single point]
Potency [3]: inconclusive: 37.2 µM [inhibitor, single point]
Potency [4]: inconclusive: 29.6 µM [inhibitor, single point]
Potency [5]: inconclusive: 5.9 µM [inhibitor, full curve]

CC(C)(C)OC(=O)N[C@H]1CCCCCC=C[C@@H]2C[C@@]2(C(=O)NS(=O)(=O)C2CC2)NC(=O)[C@@H]2C[C@@H](OC(=O)N3Cc4cccc(F)c4C3)CN2C1=O
Potency [1]: inconclusive: 37.2 µM [inhibitor, single point]
Potency [2]: inconclusive: 26.4 µM [inhibitor, single point]
Potency [3]: inconclusive: 33.2 µM [inhibitor, single point]
Potency [4]: inactive

C=CCc1cc(OC)c(O)c(C(=O)NCCO)c1
Potency [1]: inconclusive: 16.6 µM [inhibitor, partial curve, poor fit]
Potency [2]: inconclusive: 16.6 µM [inhibitor, partial curve, poor fit]
Potency [3]: inactive
Potency [4]: inconclusive: 18.7 µM [inhibitor, single point]
Potency [5]: inactive

Cc1ccc(C(=O)c2cc(O)c(O)c([N+](=O)[O-])c2)cc1
Potency [1]: inconclusive: 37.2 µM [inhibitor, single point]
Potency [2]: inconclusive: 37.2 µM [inhibitor, single point]
Potency [3]: inconclusive: 33.2 µM [inhibitor, single point]
Potency [4]: inconclusive: 37.2 µM [inhibitor, single point]
Potency [5]: inconclusive: 37.2 µM [inhibitor, single point]

CO[C@H]1C[C@@H]2CC[C@@H](C)[C@@](O)(O2)C(=O)C(=O)N2CCCC[C@@H]2C(=O)O[C@H]([C@@H](C)C[C@@H]2CC[C@H](O)[C@H](OC)C2)CC(=O)[C@H](C)C=C(C)[C@@H](O)[C@@H](OC)C(=O)[C@H](C)C[C@H](C)C=CC=CC=C1C
Potency [1]: inconclusive: 33.2 µM [inhibitor, partial curve, poor fit]
Potency [2]: inconclusive: 33.2 µM [inhibitor, single point]
Potency [3]: inconclusive: 33.2 µM [inhibitor, single point]
Potency [4]: inconclusive: 37.2 µM [inhibitor, single point]
Potency [5]: inconclusive: 0.833 µM [inhibitor, full curve]

O=C(Nc1ccccc1Br)N[C@@H]1CCN(c2ccc(C(F)(F)F)cn2)C1
Potency [1]: inconclusive: 20.9 µM [inhibitor, single point]
Potency [2]: inconclusive: 29.6 µM [inhibitor, single point]
Potency [3]: inconclusive: 26.4 µM [inhibitor, single point]
Potency [4]: inconclusive: 23.5 µM [inhibitor, single point]
Potency [5]: inconclusive: 33.2 µM [inhibitor, single point]

CO[C@H]1C[C@@H]2CC[C@@H](C)[C@@](O)(O2)C(=O)C(=O)N2CCCC[C@@H]2C(=O)O[C@H]([C@H](C)C[C@@H]2CC[C@H](OC(=O)C(C)(CO)CO)[C@H](OC)C2)CC(=O)[C@H](C)C=C(C)[C@@H](O)[C@@H](OC)C(=O)[C@H](C)C[C@H](C)C=CC=CC=C1C
Potency [1]: inconclusive: 37.2 µM [inhibitor, single point]
Potency [2]: inconclusive: 29.6 µM [inhibitor, single point]
Potency [3]: inconclusive: 26.4 µM [inhibitor, single point]
Potency [4]: inconclusive: 23.5 µM [inhibitor, partial curve]

CO[C@H]1C=CO[C@@]2(C)Oc3c(C)c(O)c4c(O)c(c(C=NN5CCN(C)CC5)c(O)c4c3C2=O)NC(=O)C(C)=CC=C[C@H](C)[C@H](O)[C@@H](C)[C@@H](O)[C@@H](C)[C@H](OC(C)=O)[C@H]1C
Potency [1]: inactive
Potency [2]: inconclusive: 6.71 µM [inhibitor, single point]
Potency [3]: inconclusive: 0.15 µM [inhibitor, partial curve, poor fit]
Potency [4]: inconclusive: 0.0006 µM [inhibitor, full curve, poor fit]
activity change, negative = cytotoxicity [5]: inactive: 0.164% [at 9.29 µM]

NC(=O)c1cccc(-c2cc(Nc3ccc(OC(F)(F)F)cc3)ncn2)c1
Potency [1]: inconclusive: 29.6 µM [inhibitor, single point]
Potency [2]: inconclusive: 33.2 µM [inhibitor, single point]
Potency [3]: inconclusive: 20.9 µM [inhibitor, partial curve]
Potency [4]: inconclusive: 20.9 µM [inhibitor, partial curve]
Potency [5]: inactive and inconclusive: 29.1 µM [inhibitor, single point]

COc1ccc2c(Oc3ccc(NC(=O)c4c(C)n(CC(C)(C)O)n(-c5ccccc5)c4=O)cc3F)ccnc2c1
Potency [1]: inconclusive: 23.5 µM [inhibitor, single point]
Potency [2]: inconclusive: 37.2 µM [inhibitor, single point]
Potency [3]: inconclusive: 2.64 µM [inhibitor, partial curve, poor fit]
Potency [4]: inconclusive: 41.8 µM [inhibitor, single point]
Potency [5]: inconclusive: 26.4 µM [inhibitor, single point] and inconclusive: 29.1 µM [inhibitor, single point]

Clc1ccc(C(Cn2ccnc2)OCc2c(Cl)cccc2Cl)c(Cl)c1 (centres undefined)
Potency [6]: inconclusive: 10 µM [inhibitor, single point]
Potency [1]: inconclusive: 33.2 µM [inhibitor, single point]
Potency [2]: inconclusive: 26.4 µM [inhibitor, single point]
Potency [3]: inconclusive: 37.2 µM [inhibitor, single point]
Potency [4]: inconclusive: 18.7 µM [inhibitor, partial curve, poor fit]
Potency [5]: inconclusive: 9.88 µM [inhibitor, single point] and inconclusive: 33.2 µM [inhibitor, partial curve, poor fit] and inconclusive: 16.4 µM [inhibitor, single point]

COCCCCC(=NOCCN)c1ccc(C(F)(F)F)cc1
Potency [1]: inconclusive: 23.5 µM [inhibitor, partial curve]
Potency [2]: inconclusive: 18.7 µM [inhibitor, partial curve]
Potency [3]: inconclusive: 20.9 µM [inhibitor, single point]
Potency [4]: inconclusive: 33.2 µM [inhibitor, single point]
